In publication PMC9911399, “Two distinct binding modes provide the RNA-binding protein RbFox with extraordinary sequence specificity” one finds binding signal data, which are given here for 31 molecules.

T1: RBFOX1 RRM RbFoxmut (Fox-RRM*) (Homo sapiens, UniProt Q9NWB1 109-208, R118D;E147R;N151S;E152T)
T1 sequence: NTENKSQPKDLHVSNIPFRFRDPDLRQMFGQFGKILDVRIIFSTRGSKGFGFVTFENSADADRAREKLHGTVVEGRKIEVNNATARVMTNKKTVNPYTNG

B1: CGACGCG (DNA:RNA)
RNA: GGGAGACCGGAAUUCAGAUUGUCCCGACGCGUUAAAUCCCGUCGUAGCCACCA
DNA 1: CAATCTGAATTCCGGTCTCCC
DNA 2: TGGTGGCTACGACGGGATT
B2: CAGCCUA (DNA:RNA)
RNA: B1 RNA with G26A, A27G, G29C, C30U, G31A
DNA 1: CAATCTGAATTCCGGTCTCCC
DNA 2: TGGTGGCTACGACGGGATT
B3: CAAGUCU (DNA:RNA)
RNA: B1 RNA with G26A, C28G, G29U, G31U
DNA 1: CAATCTGAATTCCGGTCTCCC
DNA 2: TGGTGGCTACGACGGGATT
B4: GCGGGAC (DNA:RNA)
RNA: B1 RNA with C25G, G26C, A27G, C28G, C30A, G31C
DNA 1: CAATCTGAATTCCGGTCTCCC
DNA 2: TGGTGGCTACGACGGGATT
B5: CACGAGA (DNA:RNA)
RNA: B1 RNA with G26A, A27C, C28G, G29A, C30G, G31A
DNA 1: CAATCTGAATTCCGGTCTCCC
DNA 2: TGGTGGCTACGACGGGATT
B6: UUUGAAG (DNA:RNA)
RNA: B1 RNA with C25U, G26U, A27U, C28G, G29A, C30A
DNA 1: CAATCTGAATTCCGGTCTCCC
DNA 2: TGGTGGCTACGACGGGATT
B7: CAGUAUG (DNA:RNA)
RNA: B1 RNA with G26A, A27G, C28U, G29A, C30U
DNA 1: CAATCTGAATTCCGGTCTCCC
DNA 2: TGGTGGCTACGACGGGATT
B8: CUUGCCG (DNA:RNA)
RNA: B1 RNA with G26U, A27U, C28G, G29C
DNA 1: CAATCTGAATTCCGGTCTCCC
DNA 2: TGGTGGCTACGACGGGATT
B9: UCAAGUG (DNA:RNA)
RNA: B1 RNA with C25U, G26C, C28A, C30U
DNA 1: CAATCTGAATTCCGGTCTCCC
DNA 2: TGGTGGCTACGACGGGATT
B10: AUCCUGG (DNA:RNA)
RNA: B1 RNA with C25A, G26U, A27C, G29U, C30G
DNA 1: CAATCTGAATTCCGGTCTCCC
DNA 2: TGGTGGCTACGACGGGATT
B11: CGUGCGA (DNA:RNA)
RNA: B1 RNA with A27U, C28G, G29C, C30G, G31A
DNA 1: CAATCTGAATTCCGGTCTCCC
DNA 2: TGGTGGCTACGACGGGATT
B12: GACAUUA (DNA:RNA)
RNA: GGGAGACCGGAAUUCAGAUUGUCCGACAUUAUUAAAUCCCGUCGUAGCCACCA
DNA 1: CAATCTGAATTCCGGTCTCCC
DNA 2: TGGTGGCTACGACGGGATT
B13: UUGACCA (DNA:RNA)
RNA: B12 RNA with G25U, A26U, C27G, U29C, U30C
DNA 1: CAATCTGAATTCCGGTCTCCC
DNA 2: TGGTGGCTACGACGGGATT
B14: UUAUCCC (DNA:RNA)
RNA: B1 RNA with C25U, G26U, C28U, G29C, G31C
DNA 1: CAATCTGAATTCCGGTCTCCC
DNA 2: TGGTGGCTACGACGGGATT
B15: UCAUCCG (DNA:RNA)
RNA: B1 RNA with C25U, G26C, C28U, G29C
DNA 1: CAATCTGAATTCCGGTCTCCC
DNA 2: TGGTGGCTACGACGGGATT
B16: AUCUCGU (DNA:RNA)
RNA: B12 RNA with G25A, A26U, A28U, U29C, U30G, A31U
DNA 1: CAATCTGAATTCCGGTCTCCC
DNA 2: TGGTGGCTACGACGGGATT
B17: AGAGCAC (DNA:RNA)
RNA: B1 RNA with C25A, C28G, G29C, C30A, G31C
DNA 1: CAATCTGAATTCCGGTCTCCC
DNA 2: TGGTGGCTACGACGGGATT
B18: UAGGGUU (DNA:RNA)
RNA: B12 RNA with G25U, C27G, A28G, U29G, A31U
DNA 1: CAATCTGAATTCCGGTCTCCC
DNA 2: TGGTGGCTACGACGGGATT
B19: AGACGUA (DNA:RNA)
RNA: B1 RNA with C25A, C30U, G31A
DNA 1: CAATCTGAATTCCGGTCTCCC
DNA 2: TGGTGGCTACGACGGGATT
B20: AAAAGAA (DNA:RNA)
RNA: B12 RNA with G25A, C27A, U29G, U30A
DNA 1: CAATCTGAATTCCGGTCTCCC
DNA 2: TGGTGGCTACGACGGGATT
B21: GGUACAU (DNA:RNA)
RNA: B12 RNA with A26G, C27U, U29C, U30A, A31U
DNA 1: CAATCTGAATTCCGGTCTCCC
DNA 2: TGGTGGCTACGACGGGATT
B22: CAAGGCU (DNA:RNA)
RNA: B1 RNA with G26A, C28G, G31U
DNA 1: CAATCTGAATTCCGGTCTCCC
DNA 2: TGGTGGCTACGACGGGATT
B23: UAGGGUC (DNA:RNA)
RNA: B12 RNA with G25U, C27G, A28G, U29G, A31C
DNA 1: CAATCTGAATTCCGGTCTCCC
DNA 2: TGGTGGCTACGACGGGATT
B24: GGCGGCU (DNA:RNA)
RNA: B1 RNA with C25G, A27C, C28G, G31U
DNA 1: CAATCTGAATTCCGGTCTCCC
DNA 2: TGGTGGCTACGACGGGATT
B25: GACAUCU (DNA:RNA)
RNA: B12 RNA with U30C, A31U
DNA 1: CAATCTGAATTCCGGTCTCCC
DNA 2: TGGTGGCTACGACGGGATT
B26: GAGGACC (DNA:RNA)
RNA: B12 RNA with C27G, A28G, U29A, U30C, A31C
DNA 1: CAATCTGAATTCCGGTCTCCC
DNA 2: TGGTGGCTACGACGGGATT
B27: AGGUCGA (DNA:RNA)
RNA: B1 RNA with C25A, A27G, C28U, G29C, C30G, G31A
DNA 1: CAATCTGAATTCCGGTCTCCC
DNA 2: TGGTGGCTACGACGGGATT
B28: CGUUGUC (DNA:RNA)
RNA: B1 RNA with A27U, C28U, C30U, G31C
DNA 1: CAATCTGAATTCCGGTCTCCC
DNA 2: TGGTGGCTACGACGGGATT
B29: AGCCGAA (DNA:RNA)
RNA: B1 RNA with C25A, A27C, C30A, G31A
DNA 1: CAATCTGAATTCCGGTCTCCC
DNA 2: TGGTGGCTACGACGGGATT
B30: UACAGGU (DNA:RNA)
RNA: B12 RNA with G25U, U29G, U30G, A31U
DNA 1: CAATCTGAATTCCGGTCTCCC
DNA 2: TGGTGGCTACGACGGGATT
B31: GACUCAG (DNA:RNA)
RNA: B12 RNA with A28U, U29C, U30A, A31G
DNA 1: CAATCTGAATTCCGGTCTCCC
DNA 2: TGGTGGCTACGACGGGATT

Where a chain is given by its changes, count along the chain named. This is one part of the list.

The assay has as its target T1, RBFOX1 RRM RbFoxmut (Fox-RRM*). As to the kind of experiment: EMSA; HiTS-Eq, 1 nM pool, 10 min; buffer printed only for the single-RNA assays: 10 mM Tris pH 7.5, 150 mM NaCl, 3.4 mM EDTA, 0.001% NP-40, 30 C. As to conditions: tags: His6 N-terminal (pET28a); label: 5' 32P. A digest of the protocol: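 A pool of RNA with 7 randomized nucleotides, 5′-radiolabelled and with DNA-annealed flanks, was equilibrated at 1 nM for 10 min in 50 µL with purified RbFox RRM, wild type or mutant, across increasing protein concentrations. Free RNA was separated by 8% native PAGE, excised, reverse-transcribed, barcoded by PCR and sequenced. Relative association constants were obtained from read-count changes of each RNA species versus the control reaction and normalised to the cognate motif.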
Background: In EMSA bound probe runs differently from free probe, usually more slowly.
For the molecule B1, the binding signal was 0.129 KA relative to UGCAUGU.
On to B2, for which the binding signal is 0.0764 KA relative to UGCAUGU.
In the case of B3, the binding signal was 0.0656 KA relative to UGCAUGU.
For B4, the binding signal was 0.0962 KA relative to UGCAUGU.
As for B5, the binding signal is 0.0868 KA relative to UGCAUGU.
Turning to B6, the binding signal was 0.1 KA relative to UGCAUGU.
The figure for B7 is 0.566 KA relative to UGCAUGU.
For B8 the value was 0.098 KA relative to UGCAUGU; for B9, 0.117 KA relative to UGCAUGU; for B10, 0.106 KA relative to UGCAUGU.
Turning to B11, the binding signal was 0.0992 KA relative to UGCAUGU.
On to B12, for which the binding signal is 0.103 KA relative to UGCAUGU.
On to B13, for which the binding signal is 0.0867 KA relative to UGCAUGU.
For B14 the value was 0.0744 KA relative to UGCAUGU; for B15, 0.0962 KA relative to UGCAUGU; for B16, 0.136 KA relative to UGCAUGU.
The figure for B17 is 0.106 KA relative to UGCAUGU; for B18 it is 0.108 KA relative to UGCAUGU.
For B19, the binding signal is 0.115 KA relative to UGCAUGU.
Consider B20, for which the binding signal was 0.0861 KA relative to UGCAUGU.
Turning to B21, the binding signal is 0.0796 KA relative to UGCAUGU.
For B22 the value was 0.0653 KA relative to UGCAUGU; for B23, 0.138 KA relative to UGCAUGU; for B24, 0.0834 KA relative to UGCAUGU.
For B25 the value was 0.0745 KA relative to UGCAUGU; for B26, 0.072 KA relative to UGCAUGU.
For the molecule B27, the binding signal is 0.113 KA relative to UGCAUGU.
For B28 the value was 0.31 KA relative to UGCAUGU; for B29, 0.0891 KA relative to UGCAUGU; for B30, 0.107 KA relative to UGCAUGU.
B31: the binding signal is 0.0775 KA relative to UGCAUGU.
